# Experimental data taken from PubChem BioAssay AID504339 (National Center for Advancing Translational Sciences (NCATS), 2011).
# Out of some 390,000 compounds screened, about 17,000 (4.4%) were called active. This list was built around the results that the source calls inconclusive (neither active nor inactive); the mix of calls is not that of the screen. The call rests on the fitted dose curve; in most records, active means well fitted inhibition curve with a large enough effect; inconclusive means small, poorly fitted or top-dose-only effect; inactive means no such curve, though single readings can be large or run the other way. A potency beside an inconclusive call is a rough fit, not a confirmed value.
# Target: Lysine-specific demethylase 4A (Homo sapiens) (UniProt O75164)
# Test: qHTS Assay for Inhibitors of JMJD2A-Tudor Domain; further: nearly all actives have a fitted effect of over 50% in size
# Details: AlphaScreen JMJD2A-Tudor / H3K4me3 peptide binding; activity change, negative = inhibition: at 114 µM (top of the series)
# On the % scale 0 is the no-effect control and ±100 the full control effect; potency means the concentration at half of the fitted maximal effect; tags describe the fitted curve by direction and shape.
# UniProt O75164, sequence (O75164 whole entry, looked up, the tested form may be a part): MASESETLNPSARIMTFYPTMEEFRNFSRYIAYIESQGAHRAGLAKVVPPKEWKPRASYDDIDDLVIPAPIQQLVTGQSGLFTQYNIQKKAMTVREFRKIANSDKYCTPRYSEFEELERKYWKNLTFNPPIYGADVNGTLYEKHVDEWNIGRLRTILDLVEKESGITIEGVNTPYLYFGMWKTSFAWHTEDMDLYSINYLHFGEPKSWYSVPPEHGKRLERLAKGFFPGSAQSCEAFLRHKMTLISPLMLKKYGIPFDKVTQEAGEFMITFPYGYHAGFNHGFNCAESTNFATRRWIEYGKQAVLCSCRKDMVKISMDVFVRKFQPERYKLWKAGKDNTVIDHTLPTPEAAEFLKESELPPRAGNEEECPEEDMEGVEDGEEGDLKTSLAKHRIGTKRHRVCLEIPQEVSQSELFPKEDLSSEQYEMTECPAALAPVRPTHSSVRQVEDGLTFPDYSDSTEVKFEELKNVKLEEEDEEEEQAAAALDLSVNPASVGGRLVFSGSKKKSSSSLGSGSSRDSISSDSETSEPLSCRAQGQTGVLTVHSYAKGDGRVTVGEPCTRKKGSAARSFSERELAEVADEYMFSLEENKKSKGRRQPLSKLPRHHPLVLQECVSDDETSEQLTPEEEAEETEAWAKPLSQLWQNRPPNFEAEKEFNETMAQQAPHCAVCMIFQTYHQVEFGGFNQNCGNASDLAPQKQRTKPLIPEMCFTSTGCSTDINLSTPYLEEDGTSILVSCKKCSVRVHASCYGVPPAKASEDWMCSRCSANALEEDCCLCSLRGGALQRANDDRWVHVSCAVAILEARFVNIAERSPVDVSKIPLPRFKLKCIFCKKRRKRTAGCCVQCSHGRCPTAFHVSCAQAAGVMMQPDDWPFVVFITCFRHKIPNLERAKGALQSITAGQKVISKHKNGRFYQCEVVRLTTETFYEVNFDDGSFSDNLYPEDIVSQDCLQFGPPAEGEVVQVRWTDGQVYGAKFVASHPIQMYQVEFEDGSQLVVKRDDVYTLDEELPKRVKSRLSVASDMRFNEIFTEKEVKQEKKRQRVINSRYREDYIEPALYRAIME
SMILES,Potency,"activity change, negative = inhibition"
COC(=O)c1ccccc1NC(=O)CN1CCC(NC(=O)c2ccc(C)cc2)CC1,"inconclusive: 100 µM [inhibitor, partial curve, poor fit]",–
N#CC1=C(SCC(=O)c2ccc(Br)cc2)NC2=C(C(=O)CCC2)C1c1ccco1 (centres undefined),"inconclusive: 56.2 µM [inhibitor, partial curve]",–
O=S(=O)(c1ccc2c(c1)OCCO2)N1CCN(CCc2ccccc2)CC1,"inconclusive: 79.4 µM [inhibitor, partial curve]",–
NC(Cc1cccc2nsnc12)C(=O)O (centres undefined),active: 7.08 µM,–
CN1CCN(NC(=O)c2ccc(Br)s2)CC1,–,inactive: -9.56% [at 11.4 µM]
C/C(CC(=O)Nc1ccc(N(C)C)cc1)=N\NC(=O)c1ccc(Cl)cc1,"inconclusive: 35.5 µM [inhibitor, full curve]",–
Cc1ccccc1Nc1scc(-c2ccc(Cl)cc2)[n+]1-c1ccccc1C,"inconclusive: 20 µM [inhibitor, partial curve]",–
Fc1ccc(CN2CCN(c3ncnc4scc(-c5ccccc5)c34)CC2)cc1,"inconclusive: 20 µM [inhibitor, partial curve]",–
COc1ccc(OC)c(C(=O)NC(CC(N)=O)c2ccc(N3CCC(Cc4ccccc4)CC3)c([N+](=O)[O-])c2)c1 (centres undefined),"inconclusive: 56.2 µM [inhibitor, partial curve]",–
CC(C)CNC(=S)N1CCN(Cc2ccc3c(c2)OCO3)CC1,active: 20 µM,–
COc1ccc(CN2CCCCCC2)cc1,active: 1 µM,–
C=C(C)CSc1nc2sc3c(c2c(=O)n1C1CCCCC1)CCN(C)C3,"inconclusive: 50.1 µM [inhibitor, partial curve]",–
CCCc1cc(-n2ccnc2)n2c(nc3ccccc32)c1C#N,–,inactive: 8.25%
COc1ccc(C2CC(c3cccs3)=NN2S(C)(=O)=O)cc1 (centres undefined),–,inactive: -17.7%
Oc1ccc2ccccc2c1/C=N/Nc1ccccc1,active: 50.1 µM,–
Cc1cccc(N2CCN(C(=O)CCCSc3nc4ccccc4[nH]3)CC2)c1C,–,inactive: -31%
O=C(Nc1ccc(Cl)cc1)OCCn1nnnc1C(c1ccccc1Cl)N1CCOCC1 (centres undefined),active: 35.5 µM,–
CCc1ccccc1NC(=O)c1ccc2c(c1)c(C)c(C)n2Cc1ccccc1,"inconclusive: 25.1 µM [inhibitor, full curve, poor fit]",–
N#CC1=C(S)N(c2ccc(F)cc2)C2(CCCCC2)NC1=O,–,inactive: -10.6%
CC(C)C1CC(c2ccccc2)(C(CN)CO)CCO1 (centres undefined),"inconclusive: 2.82 µM [inhibitor, full curve, poor fit]",–
COc1ccc(OCc2cc(C(=O)NCC3CCCCO3)no2)c(Cl)c1 (centres undefined),"inconclusive: 25.1 µM [inhibitor, partial curve]",–
CC(C)Nc1nnc(SCC(=O)Nc2ccc3c(c2)C(=O)c2ccccc2C3=O)s1,"inconclusive: 8.91 µM [inhibitor, full curve, poor fit]",–
COc1cccc(C2CC(c3ccc(Br)cc3)=NN2C(=O)c2ccncc2)c1OC (centres undefined),"inconclusive: 44.7 µM [inhibitor, partial curve]",–

SMILES,Potency,"activity change, negative = inhibition"
Cc1ccn2cc(C(=O)NC3CCN(Cc4ccccc4)CC3)nc2c1,"inconclusive: 79.4 µM [inhibitor, single point]",–
CCN(CC)C(=O)[C@H]1CC(CC(=O)NCc2ccc(OC)c(OC)c2)C(=O)N2CCc3c([nH]c4ccc(OC)cc34)[C@]12C (some centres undefined),"inconclusive: 89.1 µM [inhibitor, partial curve, poor fit]",–
Cc1nc2c(o1)C(=O)c1ccccc1C2=Nc1ccccc1,"inconclusive: 3.16 µM [inhibitor, full curve, poor fit]",–
ON=C1c2cc(OCCN3CCCCC3)ccc2-c2ccc(OCCN3CCCCC3)cc21,"inconclusive: 31.6 µM [inhibitor, single point]",–
Cc1cc2oc(C(=O)Nc3ccc(S(=O)(=O)N(C)c4ccccc4)cc3)cc(=O)c2cc1C,–,inactive: 5.9%
COc1cc(-c2nnc(SCCOc3ccccc3)o2)cc(OC)c1OC,–,inactive: -12.6%
O=C(CNc1cc(S(=O)(=O)N2CCOCC2)ccc1N1CCCC1)N1CCc2ccccc21,"inconclusive: 11.2 µM [inhibitor, full curve]",–
O=c1nccc(N/N=C/c2cccc(O)c2)[nH]1,"inconclusive: 35.5 µM [inhibitor, single point]",–
CCn1c(C)c(C)c2cc(C(=O)NCCc3cc(OC)ccc3OC)ccc21,active: 35.5 µM,–
C=CCN1C(=O)C(CC(=O)O)SC1=Nc1ccc(N=Nc2ccccc2)cc1 (centres undefined),"inconclusive: 7.08 µM [inhibitor, full curve, poor fit]",–
Cc1ccc(S(=O)(=O)N2CCN(c3ccc([N+](=O)[O-])c(NCCN4CCOCC4)c3)CC2)cc1,"inconclusive: 8.91 µM [inhibitor, full curve, poor fit]",–
Cc1c(C#N)c(NC(=O)c2ccccc2)n(Cc2ccccc2)c1C,"inconclusive: 28.2 µM [inhibitor, single point]",–
Cc1ccc(C(C)C)cc1OCCCCN1CCCC1,active: 17.8 µM,–
COc1ccc(-c2csc(NC(=O)CS(=O)(=O)c3ccccc3)n2)cc1,–,inactive: -27.2%
O=C(O)CCNS(=O)(=O)c1ccccc1C(F)(F)F,"inconclusive: 89.1 µM [inhibitor, single point]",–
Cc1ccccc1CSc1ccc2nnc(-c3ccccn3)n2n1,"inconclusive: 63.1 µM [inhibitor, partial curve, poor fit]",–
Cn1ncc(Cl)c1C(=O)Nc1nc2ccc(Cl)cc2s1,–,inactive: -9.93%
CN(CC(=O)NCCc1ccccc1)S(=O)(=O)c1ccc(Br)s1,–,inactive: -6.67%
NC1(C#Cc2ccc3oc(=O)c(-n4cc(-c5ccsc5)nn4)cc3c2)CCCCC1,"inconclusive: 56.2 µM [inhibitor, partial curve]",–
CCCN(CC(=O)Nc1ccccc1C)C(=O)c1ccc2[nH]c3c(c2c1)CC(C)CC3 (centres undefined),"inconclusive: 8.91 µM [inhibitor, full curve]",–
O=C(CSc1nc2nc(-c3cccs3)cc(C(F)(F)F)c2c(=O)[nH]1)Nc1c(F)c(F)c(F)c(F)c1F,–,inactive: -11%
O=C1CCN(Cc2ccccc2)C=C1c1ccc2ccccc2c1,active: 44.7 µM,–
C[C@]12c3[nH]c4cc(-c5ccco5)ccc4c3CCN1C(=O)[C@@H](CC(=O)NCCCn1ccnc1)C[C@@H]2C(=O)N1CCCCC1,"inconclusive: 31.6 µM [inhibitor, partial curve]",–

SMILES,Potency,"activity change, negative = inhibition"
Cc1[nH]c2ccccc2c1C(=O)CSc1nc2cc(S(=O)(=O)N3CCCCC3)ccc2o1,–,inactive: -13.7% [at 57.1 µM]
O=C(c1ccc(Cl)cc1)c1ccc(Oc2cc(NN3CCCCC3)c([N+](=O)[O-])cc2[N+](=O)[O-])cc1,"inconclusive: 63.1 µM [inhibitor, partial curve, poor fit]",–
COc1ccc(-c2csc(/C(C#N)=C\c3ccc(OC)c([N+](=O)[O-])c3)n2)cc1,–,inactive: 5.96%
CC1(C)C2CCC(C2)C1(C)NC(=O)CN1CCCC1 (centres undefined),active: 28.2 µM,–
CC1=C(C(N)=O)S(=O)(=O)c2ccccc21,"inconclusive: 15.8 µM [inhibitor, full curve, poor fit]",–
Cc1c(C(=O)OCCOC(C)C)[nH]c2c1C(=O)CC(c1ccco1)C2 (centres undefined),"inconclusive: 35.5 µM [inhibitor, partial curve]",–
CC1(C)CC(=O)c2c(n(S(=O)(=O)c3ccccc3)c3ccc(NS(=O)(=O)c4ccccc4)cc23)C1,"inconclusive: 3.98 µM [inhibitor, partial curve]",–
C[C@@]12CCC=C[C@H]1[C@H](c1ccoc1)N(Cc1ccccc1)C2=O,"inconclusive: 56.2 µM [inhibitor, partial curve]",–
O=C(COC(=O)c1c(F)cccc1F)Nc1ccccc1OC(F)F,–,inactive: 4.23%
CN(C)c1ccc(CNC(=O)c2ccc3nc(Cc4ccccc4)oc3c2)cc1,"inconclusive: 10 µM [inhibitor, full curve]",–
CCOc1ccc(/C=C/C(=O)Nc2ccc(N3CCOCC3)cc2)cc1,active: 25.1 µM,–
CC(=NNC(=S)N1CC2CCC(CC2)C1)c1cnccn1,active: 11.2 µM,–
C=CCN(C(=O)CSC1=NC(=O)CN1C(C)=O)c1nc(C)c(-c2ccccc2)s1,"inconclusive: 22.4 µM [inhibitor, full curve]",–
O=C(c1noc2c1CCc1ccccc1-2)N1CCCc2ccccc21,–,inactive: 27.2%
COc1ccc(O)c(-c2cc(-c3ccccc3Cl)[nH]n2)c1,"inconclusive: 56.2 µM [inhibitor, partial curve]",–
COc1ccccc1C(=O)Nc1ccc(C(=O)OCc2cc(=O)n3c4c(sc3n2)CCCC4)cc1,"inconclusive: 63.1 µM [inhibitor, partial curve, poor fit]",–
Cc1[nH]c(=O)[nH]c1C(=O)CCCCC(=O)OCC(=O)Nc1ccccn1,active: 0.794 µM,–
CCc1ccc(C2CC(=O)Nc3c2c(=O)nc2c(C)cccn32)cc1 (centres undefined),"inconclusive: 89.1 µM [inhibitor, single point]",–
Cc1ccc(C(=O)C2=C(O)C(=O)N(Cc3ccco3)C2c2cccc(Br)c2)o1 (centres undefined),"inconclusive: 44.7 µM [inhibitor, full curve, poor fit]",–
Cc1ccc(C(=O)N(Cc2ccco2)c2ccccn2)cc1,–,inactive: -2.65%
CC(C)c1cccc(OCCN2CCCC2)c1,active: 35.5 µM,–
Cc1ccc(CNC(=O)c2c(Nc3ccccc3C)sc(C(=O)c3ccc(F)cc3)c2N)cc1,"inconclusive: 22.4 µM [inhibitor, full curve]",–
Cn1nnnc1Sc1ncnc2scc(-c3ccc(N)cc3)c12,"inconclusive: 89.1 µM [inhibitor, single point]",–
